# Reference: PubChem BioAssay AID504466 (National Center for Advancing Translational Sciences (NCATS), 2011)
# Hit rate of the full screen: of about 330,000 compounds, about 4,200 (1.3%) were called active. Inconclusive means that the source gave no clear call. Such entries were picked first, then a sample of the others. Calls follow the shape of the dose curve; as a rule, active = well fitted activation curve with a large enough effect; inconclusive = small, poorly fitted or top-dose-only effect; inactive = no such curve, though single readings can be large or run the other way. Potencies of inconclusive entries are doubtful fits and often do not repeat.
# Assay: qHTS screen for small molecules that induce genotoxicity in human embryonic kidney (HEK293T) cells expressing luciferase-tagged ELG1; also: nearly all actives have a fitted effect of over 60% in size
# Details: HEK293T ELG1-luciferase reporter, luminescence, 16 h; series mostly up to 46 µM
# How it was run: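 ELG1-luciferase HEK293T cells, 2,000/well; compound pinned in; 16 hr, 37 °C, 5% CO2; ONE-Glo, 30 min RT; luminescence on CCD imager.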
# Potency is read from the fitted curve at half-maximal effect; tags tell the direction and shape of the fitted curve.
row,SMILES,Potency
1,CCOc1ccc(OCCSc2nc(C)cc(=O)[nH]2)cc1,"inconclusive: 20.6 µM [activator, single point]"
2,COc1ccc([C@H]2CC(=O)C=C(c3ccc(Oc4ccccc4)cc3)C2)cc1OC,inactive
3,Cc1nnc(SCC(=O)N2CC(=O)Nc3ccccc32)n1Cc1ccccc1,inactive
4,CC(C)/C=N/Nc1nc(-c2ccc(Br)cc2)cs1,"inconclusive: 32.6 µM [activator, partial curve, poor fit]"
5,CCC(=O)Nc1cc2nn(-c3ccc(OC)cc3)nc2cc1C,active: 0.411 µM
6,CCC(CC)c1nnc(NC(=O)[C@@H](NC(=O)c2cccc(C)c2)C(C)C)s1,inactive
7,COc1cccc2cc(C(=O)Nc3cccc(C)n3)c(=O)oc12,active: 2.31 µM
8,Cc1cccc(OCCCC(=O)NCC(=O)Nc2cccc(C)c2C)c1,inactive
9,Cc1ccc(-c2cc(C(=O)N/N=C\c3cnn(C)c3C)c3ccccc3n2)cc1C,"inconclusive: 20.6 µM [activator, partial curve, poor fit]"
10,COc1ccccc1/C=C/C(=O)NCCc1ccccn1,"inconclusive: 20.6 µM [activator, single point]"
11,COC(=O)[C@@H](C)NC(=O)c1ccc2oc(CCc3ccccc3)nc2c1,"inconclusive: 14.6 µM [activator, single point]"
12,CCOc1ccc2nc(NC(=O)Nc3ccccc3)sc2c1,"inconclusive: 4.61 µM [activator, partial curve, poor fit]"
13,Cc1cccc(-n2c(CCCN3C(=O)c4ccccc4C3=O)nc3ccccc3c2=O)n1,active: 23.1 µM
14,O=C(/C=C/c1ccc(OC2CSC2)cc1)c1ccccc1,"inconclusive: 13 µM [activator, partial curve, poor fit]"
15,O=C(NC1CCCCCC1)C(=S)NC1CCCCC1,"inconclusive: 2.59 µM [activator, full curve, poor fit]"
16,CCN(CC)CCNCC(=O)N1c2ccccc2CCc2ccc(NC(=O)OC)cc21,"inconclusive: 5.17 µM [activator, single point]"
17,COc1ccc(/C=N/Nc2ncnc3c2[nH]c2ccc(C)cc23)c(OC)c1OC,"inconclusive: 9.2 µM [activator, partial curve, poor fit]"
18,CCCc1nc(SCC(=O)Nc2ccc(S(=O)(=O)N(C)C)cc2)c2ccccc2n1,"inconclusive: 29.1 µM [activator, partial curve, poor fit]"
19,Nc1nnc(-c2cc3ccccc3oc2=O)s1,"inconclusive: 14.1 µM [activator, partial curve, poor fit]"
20,CCSc1nnc(Nc2ccc(C)cc2)s1,"inconclusive: 16.4 µM [activator, partial curve, poor fit]"
21,Cc1cc(-c2nnc(CCC(=O)NCc3cc(F)cc(C(F)(F)F)c3)o2)no1,"inconclusive: 18.3 µM [activator, partial curve, poor fit]"
22,CCC/C(=N/NC(=O)c1csc(C)c1C)c1ccc(Cl)s1,"inconclusive: 29.1 µM [activator, partial curve, poor fit]"
23,CN(Cc1ccc(Cl)cc1Cl)C(=O)c1cccc(S(=O)(=O)N2CCN(c3ccccc3)CC2)c1,"inconclusive: 14.6 µM [activator, single point]"
24,CCCS(=O)(=O)c1nc(S(=O)(=O)c2ccc(C)cc2)c(N2CCCC(C)C2)s1 (stereo not given),inactive
25,CC1CCCCC1NC(=O)CCCc1nc2ccccc2c(=O)[nH]1 (stereo not given),inactive

row,SMILES,Potency
1,Cc1ccc(NC(=O)C2CCCN2c2nn3c(=O)cc(C)nc3s2)cc1 (stereo not given),inactive
2,COc1cc(-c2nnc(SCC(=O)c3ccc(C)cc3)o2)cc(OC)c1OC,inactive
3,COC(/C=C/Nc1ccc(OC)cc1)=C(C#N)C#N,inactive
4,CCN1CCN(CCCNC(=O)C(NC(=O)C2CCC(C)CC2)C(C)C)CC1 (stereo not given),inactive
5,COc1ccc(C(=O)N2CCN(C(=O)c3cc(OC)c(OC)c(OC)c3)CC2)cc1,inactive
6,C/C=C/c1ccc(OCCOc2ccc(C=O)cc2)c(OC)c1,inactive
7,COc1ccccc1NC(=S)N/N=C/c1ccc(O)cc1,"inconclusive: 4.11 µM [activator, partial curve]"
8,Cc1nc(N2CCC(C)CC2)c2c(C)c(C(=O)Nc3ccc(C(F)(F)F)cc3)sc2n1,"inconclusive: 0.103 µM [activator, full curve, poor fit]"
9,O=C(CNc1ccc(Br)cc1)c1ccccc1,"inconclusive: 25.9 µM [activator, partial curve, poor fit]"
10,COC(=O)c1sccc1-c1ccc(C(=O)Nc2ccccc2)o1,"inconclusive: 11.6 µM [activator, partial curve, poor fit]"
11,Nc1ccccc1NC(=O)c1ccccc1,"inconclusive: 16.4 µM [activator, partial curve, poor fit]"
12,N#Cc1ccc(-c2ccc(OCC3CNC(=O)O3)cc2)cc1 (stereo not given),"inconclusive: 18.3 µM [activator, single point]"
13,CC12CCC(C(=O)NNC(=O)c3ccccc3)(OC1=O)C2(C)C (stereo not given),inactive
14,COc1ccc(/C=N/n2c(N)c(S(=O)(=O)c3cccs3)c3nc4ccccc4nc32)cc1OC,inactive
15,Cc1ccccc1CSCC(=O)Nc1ccccc1F,inactive
16,CC1=NN(c2ccc(Cl)cc2)C(=O)C1,inactive
17,CCOC(=O)c1c(NC(=O)CN2C(=O)NC3(CCC(C)CC3)C2=O)sc(C)c1-c1ccc(C)cc1 (stereo not given),"inconclusive: 20.6 µM [activator, partial curve, poor fit]"
18,COc1cccc(C(=O)N/N=C(/c2ccccc2)c2ccccn2)c1,inactive
19,COc1cccc(NC(=O)N2CCc3ccccc3C2)c1,"inconclusive: 9.2 µM [activator, single point]"
20,COc1cc(/C=C(/C#N)C(=O)Nc2ccc(Cl)cc2)ccc1Oc1nc(Cl)ncc1F,inactive
21,CCCCN(C(=O)c1oc2ccc(OCC)cc2c1C)c1c(N)n(CCCC)c(=O)[nH]c1=O,"inconclusive: 23.1 µM [activator, partial curve, poor fit]"
22,CCOc1cc(-c2nc(-c3ccncc3)no2)cc(OCC)c1OCC,inactive
23,CN1C(=O)C(CC(=O)O)S/C1=N\N=C\c1ccc(O)cc1O (stereo not given),inactive
24,Cc1ccc(S(=O)(=O)N2CCC3(CC2)OCCO3)cc1,inactive
25,COc1ccc(/C=N/NC(=O)c2nc(-c3ccccc3)n(-c3ccccc3)n2)c(O)c1,"inconclusive: 29.1 µM [activator, partial curve, poor fit]"

row,SMILES,Potency
1,CNc1nc(C)c(C(=O)OCc2ccccc2)s1,"inconclusive: 18.4 µM [activator, partial curve, poor fit]"
2,C/C(=N\NC(=O)c1ccccc1)c1ccccc1F,active: 5.8 µM
3,Cc1cccc(C(=O)OCC(=O)c2ccc3c(c2)OCO3)c1O,active: 2.59 µM
4,CC(=O)Nc1nc(N(C)C)nc(N(C)C)n1,"inconclusive: 23.1 µM [activator, partial curve, poor fit]"
5,CC(=O)Nc1ccc2c(c1)CCCC2,inactive
6,CNCCCNC(=O)c1ccc(/C=N/O)nc1,inactive
7,O=C(Nc1cccc(-c2ccc(N3CCCCC3)nn2)c1)c1ccco1,active: 1.64 µM
8,Cc1ccnc(NC(=O)Cn2cc([N+](=O)[O-])cn2)c1,"inconclusive: 14.6 µM [activator, partial curve]"
9,NC(=O)c1ccc(NC(=O)c2ccc(CN3CCOCC3)cc2)cc1,inactive
10,S=C(c1ccc(-c2ccc(Br)cc2)o1)N1CCOCC1,"inconclusive: 4.61 µM [activator, partial curve]"
11,O=S(=O)(Oc1ccc(Cl)cc1)c1cccc2cccnc12,inactive
12,COc1ccc(NC(=O)N(C)C[C@H]2Oc3ccc(NS(=O)(=O)c4c(C)noc4C)cc3C(=O)N([C@H](C)CO)C[C@@H]2C)cc1,inactive
13,O=c1c2c(nc3cc(-c4cccc(Cl)c4)[nH]n13)CCC2,active: 2.31 µM
14,Cc1ccc(NC(=O)CC2S/C(=N/N=C/c3ccco3)NC2=O)cc1Cl (stereo not given),"inconclusive: 32.6 µM [activator, partial curve, poor fit]"
15,CC(=O)Nc1cccc(-c2nc3ccc(NC(C)=O)cc3s2)c1,"inconclusive: 6.51 µM [activator, partial curve]"
16,Cc1onc(-c2c(F)cccc2Cl)c1C(=O)Nc1nnc(C(F)(F)F)s1,inactive
17,CCSc1ccc([C@@H]2[C@H]3C(=O)N(CC)C(=O)[C@H]3[C@]3(C(=O)OC)CCCCN23)cc1OC,inactive
18,CC(=O)Oc1ccc2c(c1)c(C(C)=O)c(C)n2C,inactive
19,CCN(CC)C(=O)c1cc2c(=O)c3cc(F)ccc3oc2nc1C,"inconclusive: 18.3 µM [activator, partial curve, poor fit]"
20,CC(C)CNC(=S)NC(=O)c1ccc(F)cc1,"inconclusive: 32.6 µM [activator, partial curve, poor fit]"
21,NS(=O)(=O)c1ccc(CCNC(=O)COC(=O)C2CCN(c3ccc(C(F)(F)F)cn3)CC2)cc1,"inconclusive: 23.1 µM [activator, single point]"
22,Cc1ccc(O)c(NC(=O)c2onc(C)c2Cl)c1,"inconclusive: 20.6 µM [activator, partial curve, poor fit]"
23,CN(Cc1ccccc1)c1ncnc2c1cnn2-c1ccccc1,active: 18.4 µM
24,CC(=O)Nc1cccc(OCC(=O)Nc2ccccc2)c1,active: 10.3 µM
25,Cc1nn(-c2ccccc2)c(C)c1/C=N/NC(=O)c1cccs1,"inconclusive: 13 µM [activator, partial curve, poor fit]"
